Structures can show the parent of a compound that is named as a salt. Out of some 1,500 compounds screened, about 30 (2%) showed activity.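 Rule for the calls: active = robust z-score below -2; a few such results were not called.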 The list shows a part of the results.
System: optoTopBP1 Flp-In 293 T-REx (HEK293) cells
Test: light-induced TopBP1 condensate (nuclear foci) count, plate-normalised robust z-score vs non-control wells; higher = more TopBP1 condensates (negative = condensation inhibitor), active = hit call of the paper
Conditions: 10 µM; incubation time 2 h

Structure (SMILES) | light-induced TopBP1 condensate (z-score)
Cc1ncc([N+](=O)[O-])n1CC(C)O (stereo not drawn) [Secnidazole] | inactive: 0.994
C/C=C(/C(=C/C)c1ccc(O)cc1)c1ccc(O)cc1 [Dienestrol] | inactive: 0.23
O=C(O)c1ccccc1OP(=O)(O)O [Fosfosal] | inactive: -0.403
COc1ccc2cc([C@H](C)C(=O)O)ccc2c1 [Naproxen] | inactive: 1.22
Nc1cc(N2CCCCC2)nc(N)[n+]1[O-] [Minoxidil] | inactive: -0.364
CC1(C)S[C@@H]2[C@H](NC(=O)[C@H](N)c3ccccc3)C(=O)N2[C@H]1C(=O)O [Ampicillin trihydrate] | inactive: 0.799
CC1(C)S[C@@H]2[C@H](NC(=O)[C@H](N)c3ccccc3)C(=O)N2[C@H]1C(=O)O [Ampicillin sodium salt] | inactive: -0.184
O=C(O)c1cc(=O)[nH]c(=O)[nH]1 [Orotic acid] | inactive: -0.185
O=c1n(CCCN2CCN(c3cccc(Cl)c3)CC2)nc2ccccn12 [Trazodone hydrochloride] | inactive: -0.662
CCC(NC(C)C)C(O)c1ccc(O)c2[nH]c(=O)ccc12 (stereo not drawn) [Procaterol hydrochloride] | inactive: 0.39
Nc1ncnc2c1ncn2C1OC(COP(=O)(O)O)C(O)C1O (stereo not drawn) [Adenosine 5'-monophosphate monohydrate] | inactive: 0.412
C[C@@H]1C[C@H]2[C@@H]3CCC4=CC(=O)C=C[C@]4(C)[C@@]3(Cl)[C@@H](O)C[C@]2(C)[C@@]1(OC(=O)c1ccco1)C(=O)CCl [Mometasone furoate] | inactive: -1.03
CN1CCCN(C(c2ccccc2)c2ccc(Cl)cc2)CC1 (stereo not drawn) [Homochlorcyclizine dihydrochloride] | inactive: -1.89
CCOC(=O)[C@H](CCc1ccccc1)N[C@@H](C)C(=O)N1C(=O)N(C)C[C@H]1C(=O)O [Imidapril hydrochloride] | inactive: -0.111
CCOc1ccc2nc(S(N)(=O)=O)sc2c1 [Ethoxzolamide] | inactive: -0.981
CCCCc1ccc2[nH]c(NC(=O)OC)nc2c1 [Parbendazole] | inactive: -0.867
O=c1oc2cc(O)ccc2s1 [Tioxolone] | inactive: 0.00597
C/C(=C\C(=O)OCCCCCCCCC(=O)O)C[C@@H]1OC[C@H](C[C@@H]2O[C@H]2[C@@H](C)[C@H](C)O)[C@@H](O)[C@H]1O [Mupirocin] | inactive: 0.229
CCc1cccc(CC)c1NC(=O)CN(CC(=O)O)CC(=O)O [Etifenin] | inactive: 0.43
CN/C(=N\CCSCc1nc[nH]c1C)NC#N [Cimetidine] | inactive: 0.0364
O=C(O)c1cc(/N=N/c2ccc(S(=O)(=O)Nc3ccccn3)cc2)ccc1O [Sulfasalazine] | inactive: -0.0783
CN1CCCN=C1/C=C/c1cccc(O)c1 [Oxantel pamoate] | inactive: -0.325
CC(N)CCCC(C)(C)O (stereo not drawn) [Heptaminol hydrochloride] | inactive: 0.486
CC1(C)S[C@@H]2[C@H](NC(=O)C3(N)CCCCC3)C(=O)N2[C@H]1C(=O)O [Cyclacillin] | inactive: -0.29
CC=CC1=C(C(=O)O)N2C(=O)[C@@H](NC(=O)[C@H](N)c3ccc(O)cc3)[C@H]2SC1 [Cefprozil] | inactive: -1.03
Cc1cc2c(s1)Nc1ccccc1N=C2N1CCN(C)CC1 [Olanzapine] | inactive: -0.0376
Cc1c(O)c(=O)n(-c2ccccc2)n1C [Antipyrine, 4-hydroxy] | inactive: 0.759
CC(C)OC(=O)C(C)(C)Oc1ccc(C(=O)c2ccc(Cl)cc2)cc1 [Fenofibrate] | inactive: -0.333

Reference: the supplement of paper PMC12582362
